Test [1] has as its system C. difficile spores. As to the kind of experiment: Outgrowth of C. difficile spores in medium containing CamSA. The settings on record: medium containing 200 μM CamSA. It counts as cell-based.
Test [2] relates to C. difficile spores. The test can be described thus: Recovery of C. difficile cells and spores from intestines and feces of CamSA-treated mice. The class given is in vivo.

Where only a bound is given, the exact number is not on record here.

Take `C[C@H](CCC(=O)Nc1cccc(S(=O)(=O)O)c1)[C@H]1CC[C@H]2[C@@H]3[C@H](O)C[C@@H]4C[C@H](O)CC[C@]4(C)[C@H]3C[C@H](O)[C@]12C` [CamSA, 3-[(3α,7α,12α-trihydroxy-24-oxo-5β-cholan-24-yl)amino]benzenesulfonic acid]: the “bacterial growth from spores” value in the test on C. difficile spores [1] is reported as “reduced but not eliminated”. Moreover, the “C. difficile vegetative cells compared to spore counts in feces” value in the test on C. difficile spores [2] (50 mg/kg CamSA) is recorded as under 10%. Further, the “spores recovered from cecum and colon” value in the test on C. difficile spores [2] (50 mg/kg CamSA, by 96 hours) is listed as “less than 2×10^5 CFUs”. Moreover, the “spores recovered from cecum and colon before the 96 hour decrease” value in the test with C. difficile spores [2] (50 mg/kg CamSA, up to 72 hours after spore challenge) is on record as “greater than 12×10^5 CFUs”. Moreover, in the test with C. difficile spores [2] (CamSA-treated animals, feces), the “excretion of ingested spores continued until, post-challenge” value is reported as “at least 96 hours” and the “start of excretion of ingested spores post-challenge” value worked out at 2 h.

The values above are taken from USRE49949E1, “Reducing risk of contracting clostridium-difficile associated disease” (The Board of Regents of the Nevada System of Higher …, priority 2012, dated 2024).
